Publication PMC6919601, “Identification of Plasmodium dipeptidyl aminopeptidase allosteric inhibitors by high throughput screening” (PLoS ONE, 2019)
Screen size: about 110,000 compounds; about 230 (0.21%) showed an effect of 50% or more. This is one part of the list.

Each molecule was assayed against DPAP1 (Plasmodium falciparum, UniProt Q8IIJ9) (assay: primary screen, percent inhibition; read by cleavage of a fluorogenic dipeptide substrate; higher = more effect of the substance).
Design: species or system P. falciparum D10 trophozoite lysates; single well
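Further: 30 min substrate incubation versus DMSO and 10 µM JCP410 controls.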

Sequence of DPAP1 (Q8IIJ9 whole entry, looked up): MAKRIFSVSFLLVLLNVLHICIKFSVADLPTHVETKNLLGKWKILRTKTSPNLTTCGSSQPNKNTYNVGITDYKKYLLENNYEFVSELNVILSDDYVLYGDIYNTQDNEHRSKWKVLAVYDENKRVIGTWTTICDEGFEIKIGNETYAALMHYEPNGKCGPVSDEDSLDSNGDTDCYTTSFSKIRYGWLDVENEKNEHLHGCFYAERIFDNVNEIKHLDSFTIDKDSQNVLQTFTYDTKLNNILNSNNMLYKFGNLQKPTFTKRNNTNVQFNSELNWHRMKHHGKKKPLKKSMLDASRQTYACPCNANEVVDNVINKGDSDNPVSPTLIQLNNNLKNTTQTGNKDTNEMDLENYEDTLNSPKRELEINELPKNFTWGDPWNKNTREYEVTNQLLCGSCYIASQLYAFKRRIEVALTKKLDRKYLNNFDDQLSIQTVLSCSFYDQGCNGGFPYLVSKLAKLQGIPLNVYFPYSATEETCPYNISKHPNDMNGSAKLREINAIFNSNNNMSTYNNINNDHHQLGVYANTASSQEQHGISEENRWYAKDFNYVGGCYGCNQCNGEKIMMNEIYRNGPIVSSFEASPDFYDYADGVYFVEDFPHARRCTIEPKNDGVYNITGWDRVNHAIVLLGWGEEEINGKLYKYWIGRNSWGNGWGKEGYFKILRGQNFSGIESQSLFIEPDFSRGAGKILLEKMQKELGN

| SMILES | % Inhibition @ 10 uM |
| --- | --- |
| COc1ccccc1C(=O)N/C(=C\c1ccc2c(c1)OCO2)C(=O)NC(CCSC)C(=O)O (stereo not drawn) | -1.19% |
| COc1ccccc1NC(=O)c1c(NC(=O)CN2CCCCC2)sc2c1CCC2 | -2.94% |
| COc1ccc(CCNc2ncnc3c2cnn3-c2ccc(C)cc2)cc1OC | -2.31% |
| CN1CCN(Cc2ccccc2Br)CC1 | 1.63% |
| COC(=O)C1=C(C)N=c2s/c(=C\c3ccc(OC)cc3)c(=O)n2C1c1ccc(OC)cc1 (stereo not drawn) | 4.95% |
| CCc1ccc(-c2cc(C(=O)NCc3ccc(C)o3)[nH]n2)cc1 | -6.02% |
| COC(=O)c1ccccc1Oc1c(F)c(F)nc(NCCO)c1F | 0.279% |
| CCc1ccccc1NC(=O)C1CCCCC1C(=O)O (stereo not drawn) | -3.65% |
| CC(C)Cn1c(=O)c2ccccc2n2c(-c3ccc(C(F)(F)F)cc3)nnc12 | -5.37% |
| O=C(O)CCNC(=O)/C(=C/c1ccccc1)NC(=O)c1cccc(Br)c1 | 0.746% |
| Cc1ccc(S(=O)(=O)Nc2nc3ccccc3nc2Nc2ccc(-c3ccc(N)cc3)cc2)cc1 | -1.91% |
| CCC(C(=O)Nc1sc(C)c(C)c1C#N)c1ccccc1 (stereo not drawn) | 12.3% |
| N#Cc1c(-c2ccc(F)cc2)noc1N | -2.88% |
| CC1=C(C(=O)Nc2c(F)cccc2F)C(c2cccnc2)C2=C(O)CCCC2=N1 (stereo not drawn) | -1.07% |
| CCCCCCOc1ccc(C(=O)NCCCn2ccnc2)cc1 | 5.44% |
| CS(=O)(=O)N(CC(=O)N1CCN(C(c2ccccc2)c2ccccc2)CC1)c1ccccc1F | -8.01% |
| CCCS(=O)(=O)NCCc1cc2c(OC)ccc(OC)c2nc1O | -2.87% |
| C=CCN1C(=S)NC2(O)c3ccccc3C(=O)C12O (stereo not drawn) | -5.51% |
| CC(=O)c1cc2c(cc1NC(=O)COc1ccc(C)cc1)OCO2 | -2.32% |
| CC1(C)CC(=O)C2=C(C1)c1c(ccc3ccccc13)NC2c1cccc(O)c1 (stereo not drawn) | 4.52% |
| CCCC(=O)Nc1ccc(C(=O)Nc2ccc(F)c(Cl)c2)cc1 | 1.71% |
| Cc1nc2nc(-c3ccco3)nn2c(O)c1Cc1ccccc1 | 1% |
| COc1cccc(OC)c1C(=O)Nc1ccc2c(c1)OCO2 | -0.48% |
| Cc1ccc(NCC2OCc3ccccc3CO2)cc1 | 0.673% |
| CCc1nc2ccc(C(=O)N3CCN(Cc4ccc5c(c4)OCO5)CC3)cc2nc1CC | 8.5% |
| NC(=O)CSC12CC3CC(CC(C3)C1)C2 | 2.94% |

| SMILES | % Inhibition @ 10 uM |
| --- | --- |
| OC1CN(C(c2ccccc2)c2ccccc2)C1 | 1.8% |
| N#CC1(NC(=O)[C@H](Cc2c(F)cccc2F)NC(=O)c2ccc(-c3ccccc3Cl)c(Cl)c2)CCN(C2CC2)CC1 | 18% |
| Cc1cc(N2CCC(C(=O)NCCN(C)C)CC2)n2nc(C)c(-c3ccc(Cl)cc3)c2n1 | 1.55% |
| O=S1(=O)c2ccccc2Nc2cc(C(F)(F)F)ccc21 | -4.26% |
| COc1cccc(CNCc2ccccc2F)c1OC | -2.14% |
| Cc1nc2c(c(C)nn2C(C)(C)C)c(C)c1CCC(=O)N1CCN(C(=O)c2ccco2)CC1 | 4.14% |
| Cc1ccc(NS(=O)(=O)c2cccc(C(=O)Nc3ccccc3)c2)cc1 | -0.0369% |
| NC1=NNC(c2ccccc2)=CS1 | -5.48% |
| CN(Cc1ccccc1)C(=O)c1cccc([N+](=O)[O-])c1 | 0.62% |
| CN1CCCN(Cc2ccc(F)c(Br)c2)CC1 | 3.01% |
| COc1cc(CN2CCN(Cc3ccc(OC)cc3OC)CC2)cc(OC)c1 | 7.02% |
| O=C1S/C(=C\c2ccc(O)cc2)C(=O)N1Cc1ccc(F)cc1 | 0.777% |
| CN1CCC(NC2CCCc3ccccc32)CC1 (stereo not drawn) | 1.88% |
| Cc1ccc(S(=O)(=O)Nc2sc3c(c2C(=O)O)CCCC3)cc1 | -2.59% |
| CCOC(=O)/C=C(\C)N1N=C2c3cc(OC)ccc3CCC2C1c1ccc([N+](=O)[O-])cc1 (stereo not drawn) | 1.63% |
| COc1ccc2cc3c(N)nn(C(=O)/C=C/c4ccc(Br)cc4)c3nc2c1 | 4.95% |
| O=C(CSc1ccccc1)N1CCCCCC1 | 47.5% |
| CC12CCC(C(=O)Nc3ccc(Br)cn3)(C(=O)C1=O)C2(C)C (stereo not drawn) | -3.26% |
| O=C(CN1C(=O)c2ccccc2S1(=O)=O)Nc1ccccc1Cl | 0.643% |
| COc1cccc2cc(C(=O)NC(C)(C)C)c(=O)oc12 | 1.32% |
| CCOCCCNC(=O)CSCc1nc(-c2ccc(C)cc2)oc1C | 0.689% |
| COc1ccc(N2CC(C(=O)Nc3cc(Cl)cc(Cl)c3)CC2=O)cc1 (stereo not drawn) | 2.53% |
| CCCCc1ccc(C2C(C#N)=C(N)OC3=C2C(=O)CCC3)s1 (stereo not drawn) | 4.3% |
| Cc1ccc(CN(CC(=O)N2CCN(c3ccccc3)CC2)S(=O)(=O)c2ccc(C)cc2)cc1 | 2.84% |
| CCC1=NC(c2ccc(OC)cc2OC)N(O)C1(C)C (stereo not drawn) | -1.4% |
| COCc1cc(C)nc2c1C(=O)NC(c1cccnc1)N2Cc1ccccc1 (stereo not drawn) | 7.89% |

| SMILES | % Inhibition @ 10 uM |
| --- | --- |
| O=C(CC(O)(c1ccccc1)C(F)(F)F)c1cccs1 (stereo not drawn) | -1.91% |
| CCC(C)(C)C1CCC2(CC1)NC(=S)N(C)N2 (stereo not drawn) | 5.3% |
| COc1ccc(Cl)cc1NS(=O)(=O)c1cc(F)ccc1OC | 4.53% |
| Cc1c(C(=O)N2CCCC2)oc2c1-c1nn(CC(=O)O)cc1CC2 | 4.79% |
| Cc1ccc(C23CC4CC(CC(NC(=O)N5CCN(C)CC5)(C4)C2)C3)cc1 | -1.81% |
| O=C(c1ccccc1)c1cc2cc(Cl)ccc2[nH]1 | -5.33% |
| CCOc1ccc(NC(=N)Nc2nc(C)cc(O)n2)cc1 | 0.755% |
| COc1ccc(N2C(=O)CC3CS(=O)(=O)CC32)cc1 (stereo not drawn) | 1.93% |
| CC1CN(C(=O)c2cccnc2)C(C)CN1C(=O)c1cccnc1 (stereo not drawn) | 0.0265% |
| COC(=O)c1sccc1NC(=O)Cn1nc(Cc2ccncc2)c2ccccc2c1=O | -6.52% |
| CCOC(=O)c1ccc(Nc2cc(-c3ccccc3)nc(-c3ccccc3)n2)cc1 | -9% |
| CC(C)CCNc1cnn(C23CC4CC(CC(CC(=O)O)(C4)C2)C3)c(=O)c1Cl | -1.66% |
| CCOC(=O)N1CCN(Cc2ccc(Cl)cc2)CC1 | -2.56% |
| CC(=O)N1N=C(c2ccc(C)cc2)Cn2c1nc1c2c(=O)n(C)c(=O)n1C | -3.75% |
| O=c1c2ccccc2nc(Cc2ccccc2)n1-c1cccc(O)c1 | 4.22% |
| Cc1ccc(NC(=O)C23CC4CC(C2)CC(n2cnc(Cl)n2)(C4)C3)cc1 | -6.39% |
| COc1ccc(-c2onc(C)c2C)cc1S(=O)(=O)NC(C)(C)C | -1.7% |
| COc1ccc(OC)c(/C=C2\SC(N3CCN(C)CC3)=NC2=O)c1 | -2.98% |
| N#CC1=C(N)OC2=C(C(=O)CC(c3ccccc3)C2)C1c1ccc(Cl)cc1Cl (stereo not drawn) | -1.38% |
| CCOc1ccc(S(=O)(=O)NCc2nc3ccccc3[nH]2)cc1C | 1.32% |
| CCC[C@H](NC(=O)C1(NC(=O)c2cc(Cl)ccc2Cl)CCCCC1)C(=O)c1nc2ccccc2o1 | -4.72% |
| OCCN(Cc1ccccc1)Cc1cccc(C(F)(F)F)c1 | -0.0494% |
| Nc1nc(N)nc(Cn2c(-c3nonc3N)nc3ccccc32)n1 | 1.67% |
| O=C1Nc2ccccc2Sc2ccccc21 | 1.39% |
| CC(=O)C1=C(C)Nc2ncnn2C1c1cccs1 (stereo not drawn) | -2.98% |
| O=C(NCC1COc2ccccc2O1)C1CCC(CNc2c(N3CCCCC3)c(=O)c2=O)CC1 (stereo not drawn) | 1.22% |

| SMILES | % Inhibition @ 10 uM |
| --- | --- |
| CSc1nc(N)c2ncc(-c3ccccc3)nc2n1 | 0.751% |
| CCn1c2ccccc2c2cc(CNC3CCCCC3)ccc21 | -1.54% |
| COc1nc(N2CCCCCC2)nc(N(Cc2ccccc2)Cc2ccccc2)n1 | 3.01% |
| CCOCCCNC(=O)c1ccc2c(c1)sc1nc(-c3ccc(C)cc3)cn12 | 0.526% |
| Cc1ccc(F)cc1NC(=O)c1sc2nc(-c3ccncc3)ccc2c1N | 8.66% |
| Cc1ccc(OCC(=O)Nc2nnc(C3CCCO3)s2)c(Br)c1 (stereo not drawn) | -2.98% |
| C/N=C1/S/C(=C\c2ccc(OCc3ccccc3F)cc2)C(=O)N1C | 1.86% |
| CC(=O)Nc1ccc(S(=O)(=O)NC2CCCCC2)cc1 | -2.55% |
| COc1ccc(-c2ccc(=O)n(Cc3cccc(Cl)c3)n2)cc1 | 0.718% |
| Cc1cccc(OCCCCN2CCCCC2)c1 | -5.94% |
| CC(=O)Nc1cccc(NC(=O)[C@@H]2C[C@@H]2c2ccccc2)c1 | 17.5% |
| CCc1cccc(-n2nnc(-c3nc(-c4ccccc4C)no3)c2N)c1 | 2.45% |
| COCCCN(C(=O)Cc1nc(-c2ccc(OC)cc2)no1)C(C)c1ccncc1 (stereo not drawn) | 1.68% |
| COC(=O)c1cc(S(=O)(=O)N2CC=C(c3ccccc3)CC2)cn1C | 0.655% |
| CCOC(=O)c1cc(C(C)C)sc1NC(=O)CCCC(=O)O | -1.1% |
| CN(Cc1ccccc1)C(=O)Cn1ncc2c3ccccc3nc-2c1O | -4.25% |
| O=C(CSc1nc(O)c2ccccc2n1)Nc1ccc(Br)cc1F | 4.57% |
| Cc1ccccc1C(=O)Nc1nc[nH]n1 | -0.0372% |
| COc1ccc(CN2CCCCC2CO)cc1C (stereo not drawn) | 0.215% |
| COC(=O)C(NC(=O)C(c1ccccc1)c1ccccc1)C12CC3CC(CC(C3)C1)C2 (stereo not drawn) | -2.15% |
| Cc1cccc(-n2cnc3cc(C(=O)NCCN4CCOCC4)ccc32)c1 | 3.04% |
| COc1cc(C=C2C(=O)OC(C)(C)OC2=O)cc(Cl)c1O | -0.467% |
| COc1ccc(/C=C2\SC(N3CCN(CCC#N)CC3)=NC2=O)cc1 | -4.33% |
| CCCN1C(=O)/C(=C\c2ccc(C(=O)O)cc2)S/C1=N/c1ccccc1 | -6.02% |
